# In the supplement of paper PMC8728848:
# This is one part of the list.
# What was measured:
# Test in all cases: glycan array binding signal (z-score within array); higher = stronger binding
# Conditions in all cases: glycan notation: IUPAC condensed, linker removed
# Gal(a1-3)GalNAc = target: Gal(a1-3)GalNAc
# How it was run: (§1)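 The binding signal is a Z-score computed within each array. Data were drawn from 3228 arrays in the Consortium for Functional Glycomics database, restricted to those with a known protein sequence. Scores were averaged over arrays of the same protein sequence at different concentrations or buffers, and over linkers, and negative values can be taken as non-binding.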
# [1] = target: Gal(a1-3)[Gal(a1-4)]Gal(b1-4)GlcNAc
# How it was run: as §1
# Gal(a1-4)Gal(b1-4)Glc = target: Gal(a1-4)Gal(b1-4)Glc
# How it was run: as §1
# Gal(a1-4)Gal(b1-4)GlcNAc = target: Gal(a1-4)Gal(b1-4)GlcNAc
# How it was run: as §1
# [2] = target: Gal(a1-4)Gal(b1-4)GlcNAc(b1-3)Gal(b1-4)Glc
# How it was run: as §1
# Gal(a1-4)GlcNAc = target: Gal(a1-4)GlcNAc
# How it was run: as §1
# Gal(a1-6)Glc = target: Gal(a1-6)Glc
# How it was run: as §1
# Gal(b1-2)Gal = target: Gal(b1-2)Gal
# How it was run: as §1
# Gal(b1-3)Gal = target: Gal(b1-3)Gal
# How it was run: as §1
# Gal(b1-3)Gal(b1-4)GlcNAc = target: Gal(b1-3)Gal(b1-4)GlcNAc
# How it was run: as §1
# [3] = target: Gal(b1-3)Gal(b1-4)GlcNAc(b1-2)Man(a1-3)[Gal(b1-3)Gal(b1-4)GlcNAc(b1-2)Man(a1-6)]Man(b1-4)GlcNAc(b1-4)GlcNAc
# How it was run: as §1
# Gal(b1-3)GalNAc = target: Gal(b1-3)GalNAc
# How it was run: as §1
# [4] = target: Gal(b1-3)GalNAc(a1-3)[Fuc(a1-2)]Gal(b1-4)Glc
# How it was run: as §1
# [5] = target: Gal(b1-3)GalNAc(a1-3)[Fuc(a1-2)]Gal(b1-4)GlcNAc
# How it was run: as §1
# [6] = target: Gal(b1-3)GalNAc(b1-3)Gal(a1-4)Gal(b1-4)Glc
# How it was run: as §1
# [7] = target: Gal(b1-3)GalNAc(b1-4)Gal(b1-4)Glc
# How it was run: as §1
# [8] = target: Gal(b1-3)GalNAc(b1-4)[Neu5Ac(a2-3)]Gal(b1-4)Glc
# How it was run: as §1
# Gal(b1-3)GlcNAc = target: Gal(b1-3)GlcNAc
# How it was run: as §1
# [9] = target: Gal(b1-3)GlcNAc(b1-2)Man(a1-3)[Gal(b1-3)GlcNAc(b1-2)Man(a1-6)]Man(b1-4)GlcNAc(b1-4)GlcNAc
# How it was run: as §1
# [10] = target: Gal(b1-3)GlcNAc(b1-2)Man(a1-3)[Gal(b1-3)GlcNAc(b1-2)Man(a1-6)]Man(b1-4)GlcNAc(b1-4)[Fuc(a1-6)]GlcNAc
# How it was run: as §1
# [11] = target: Gal(b1-3)GlcNAc(b1-3)Gal(b1-3)GlcNAc
# How it was run: as §1
# [12] = target: Gal(b1-3)GlcNAc(b1-3)Gal(b1-4)Glc
# How it was run: as §1
# [13] = target: Gal(b1-3)GlcNAc(b1-3)Gal(b1-4)GlcNAc
# How it was run: as §1
# [14] = target: Gal(b1-3)[Fuc(a1-4)]GlcNAc
# How it was run: as §1
# [15] = target: Gal(b1-3)[Fuc(a1-4)]GlcNAc(b1-2)Man(a1-3)[Gal(b1-3)[Fuc(a1-4)]GlcNAc(b1-2)Man(a1-6)]Man(b1-4)GlcNAc(b1-4)GlcNAc
# How it was run: as §1
# [16] = target: Gal(b1-3)[Fuc(a1-4)]GlcNAc(b1-2)Man(a1-3)[Gal(b1-3)[Fuc(a1-4)]GlcNAc(b1-2)Man(a1-6)]Man(b1-4)GlcNAc(b1-4)[Fuc(a1-6)]GlcNAc
# How it was run: as §1
# [17] = target: Gal(b1-3)[Fuc(a1-4)]GlcNAc(b1-3)Gal(b1-3)[Fuc(a1-4)]GlcNAc
# How it was run: as §1
# [18] = target: Gal(b1-3)[Fuc(a1-4)]GlcNAc(b1-3)Gal(b1-4)GlcNAc
# How it was run: as §1
# [19] = target: Gal(b1-3)[Fuc(a1-4)]GlcNAc(b1-3)Gal(b1-4)[Fuc(a1-3)]GlcNAc
# How it was run: as §1
# [20] = target: Gal(b1-3)[GlcNAc(b1-6)]GalNAc
# How it was run: as §1
# [21] = target: Gal(b1-3)[Neu5Ac(a2-6)]GalNAc
# How it was run: as §1
# [22] = target: Gal(b1-3)[Neu5Ac(a2-6)]GlcNAc(b1-6)Gal(b1-4)Glc
# How it was run: as §1
# [23] = target: Gal(b1-3)[Neu5Ac(b2-6)]GalNAc
# How it was run: as §1
# [24] = target: Gal(b1-4)GalNAc(a1-3)[Fuc(a1-2)]Gal(b1-4)GlcNAc
# How it was run: as §1
# [25] = target: Gal(b1-4)GalNAc(b1-3)[Fuc(a1-2)]Gal(b1-4)GlcNAc
# How it was run: as §1
# Gal(b1-4)Glc = target: Gal(b1-4)Glc
# How it was run: as §1
# Gal(b1-4)Glc6S = target: Gal(b1-4)Glc6S
# How it was run: as §1
# Gal(b1-4)GlcNAc = target: Gal(b1-4)GlcNAc
# How it was run: as §1
binder,measurement,setting,value
"HHL-1 (Homo sapiens), P07306 (protein) TKEYQDLQHLDNEESDHHQLRKGPPPPQPLLQRLCSGPRLLLLSLGLSLLLLVVVCVIGSQNSQLQEELRGLRETFSNFTASTEAQVKGLSTQGGNVGRKMKSLESQLEKQQKDLSEDHSSLLLHVKQFVSDLRSLSCQMAALQGNGSERTCCPVNWVEHERSCYWFSRSGKAWADADNYCRLEDAHLVVVTSWEEQKFVQHHIGPVNTWMGLHDQNGPWKWVDGTDYETGFKNWRPEQPDDWYGHGLGGGEDCAHFTDDGRWNDDVCQRPYRWVCETELDKASQEPPLL",glycan array binding signal (z-score),Gal(a1-3)GalNAc,-0.301
same,glycan array binding signal (z-score),[1],0.667
same,glycan array binding signal (z-score),Gal(a1-4)Gal(b1-4)Glc,-0.165
same,glycan array binding signal (z-score),Gal(a1-4)Gal(b1-4)GlcNAc,-0.54
same,glycan array binding signal (z-score),[2],-0.181
same,glycan array binding signal (z-score),Gal(a1-4)GlcNAc,-0.49
same,glycan array binding signal (z-score),Gal(a1-6)Glc,-0.065
same,glycan array binding signal (z-score),Gal(b1-2)Gal,-0.539
same,glycan array binding signal (z-score),Gal(b1-3)Gal,0.235
same,glycan array binding signal (z-score),Gal(b1-3)Gal(b1-4)GlcNAc,0.427
same,glycan array binding signal (z-score),[3],-0.545
same,glycan array binding signal (z-score),Gal(b1-3)GalNAc,-0.173
same,glycan array binding signal (z-score),[4],-0.217
same,glycan array binding signal (z-score),[5],-0.518
same,glycan array binding signal (z-score),[6],-0.515
same,glycan array binding signal (z-score),[7],-0.314
same,glycan array binding signal (z-score),[8],1.48
same,glycan array binding signal (z-score),Gal(b1-3)GlcNAc,-0.501
same,glycan array binding signal (z-score),[9],-0.372
same,glycan array binding signal (z-score),[10],2.04
same,glycan array binding signal (z-score),[11],0.129
same,glycan array binding signal (z-score),[12],-0.498
same,glycan array binding signal (z-score),[13],0.195
same,glycan array binding signal (z-score),[14],0.381
same,glycan array binding signal (z-score),[15],-0.539
same,glycan array binding signal (z-score),[16],-0.546
same,glycan array binding signal (z-score),[17],-0.552
same,glycan array binding signal (z-score),[18],-0.46
same,glycan array binding signal (z-score),[19],0.046
same,glycan array binding signal (z-score),[20],-0.409
same,glycan array binding signal (z-score),[21],-0.118
same,glycan array binding signal (z-score),[22],-0.507
same,glycan array binding signal (z-score),[23],0.135
same,glycan array binding signal (z-score),[24],-0.23
same,glycan array binding signal (z-score),[25],1.05
same,glycan array binding signal (z-score),Gal(b1-4)Glc,-0.242
same,glycan array binding signal (z-score),Gal(b1-4)Glc6S,-0.004
same,glycan array binding signal (z-score),Gal(b1-4)GlcNAc,-0.217
